# Data from the supplement of paper PMC4604168 (melanoma cell lines).
# The list shows a part of the results. Single values are uncertain, as repeats are few or missing.
# How the values were obtained:
# Test in all cases: cell count relative to DMSO control; melanoma cells; higher = more viable cells
# Conditions in all cases: library dose: low library concentration; 72 h
# MZ2-MEL = tested on: MZ2-MEL
# MeWo = tested on: MeWo
# RPMI7951 = tested on: RPMI7951
# RVH-421 = tested on: RVH-421
# SkMel28 = tested on: SkMel28
# SkMel30 = tested on: SkMel30
# SkMel5 = tested on: SkMel5
# UACC257 = tested on: UACC257
# UACC62 = tested on: UACC62
# WM115 = tested on: WM115
# WM1716 = tested on: WM1716
# WM1745 = tested on: WM1745
# WM3526 = tested on: WM3526
# WM3619 = tested on: WM3619
# WM451Lu = tested on: WM451Lu
# 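Also: cell number obtained by counting DAPI-stained nuclei in high-throughput microscope images with image analysis software, screen run in 1,536-well plates.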
Structure (SMILES),cell count (MZ2-MEL) [%],cell count (MeWo) [%],cell count (RPMI7951) [%],cell count (RVH-421) [%],cell count (SkMel28) [%],cell count (SkMel30) [%],cell count (SkMel5) [%],cell count (UACC257) [%],cell count (UACC62) [%],cell count (WM115) [%],cell count (WM1716) [%],cell count (WM1745) [%],cell count (WM3526) [%],cell count (WM3619) [%],cell count (WM451Lu) [%]
"CC(C)(C)c1cnc(CSc2cnc(NC(=O)C3CCNCC3)s2)o1 + COc1ccc(COc2ccc(Cc3cnc(N)nc3N)cc2OC)cc1 [GW2580] (first compound 0.01 µM, partner dose 1 µM)",99,97.8,82.6,104,63.7,108,103,96,88.7,103,85,84.2,122,100,102
"Cc1ccc(NC(=O)c2cccc(N(C)C)c2)cc1NC(=O)c1ccc(O)cc1 + Cc1cc([N+](=O)[O-])ccc1NS(=O)(=O)c1cc(Cl)ccc1Cl [FH535] (first compound 2 µM, partner dose 1 µM)",81,93.7,106,85.2,82.9,89.5,76.6,94.5,85.3,79.3,118,112,95.8,91.2,105
"CN(NC(=O)CC(=O)NN(C)C(=S)c1ccccc1)C(=S)c1ccccc1 + COc1ccc(COc2ccc(Cc3cnc(N)nc3N)cc2OC)cc1 [GW2580] (first compound 0.006 µM, partner dose 1 µM)",102,81.7,105,81.4,100,108,88.1,94.2,76.9,93,60.1,53.4,99.7,34.9,108
"CCc1ccc(CCOc2ccc(CC3SC(=O)NC3=O)cc2)nc1 (stereo not given) [pioglitazone] + COc1cc(N2CCC(N3CCN(C)CC3)CC2)ccc1Nc1ncc(Cl)c(Nc2ccccc2S(=O)(=O)C(C)C)n1 [NVP-TAE684] (first compound 2 µM, partner dose 0.08 µM)",106,77.5,110,98.4,67.1,110,80.1,88.7,92,90.4,87.2,76.6,132,102,95
"Cc1ccc(NC(=O)c2cccc(N(C)C)c2)cc1NC(=O)c1ccc(O)cc1 + COc1ccc(COc2ccc(Cc3cnc(N)nc3N)cc2OC)cc1 [GW2580] (first compound 2 µM, partner dose 1 µM)",74.4,104,96.6,88.2,88.8,92.3,82.1,95.5,93.6,91,100,84,98.1,126,96.2
"CCc1ccc(CCOc2ccc(CC3SC(=O)NC3=O)cc2)nc1 (stereo not given) [pioglitazone] + O=C1NC(=O)/C(=C/c2ccc(-c3ccc(F)cc3O)o2)S1 [AS252424] (first compound 2 µM, partner dose 1 µM)",92.7,103,95.4,91.3,96.2,116,94.8,86.2,94.3,89.6,92.6,86.3,71.9,100,114
"CN(NC(=O)CC(=O)NN(C)C(=S)c1ccccc1)C(=S)c1ccccc1 + Cn1cc(/C=C2\C(=O)Nc3cccnc32)c2ccccc21 [GW441756] (first compound 0.006 µM, partner dose 0.4 µM)",91.6,77.8,91.9,88.3,89.5,91.7,66.5,88.8,75.4,78.3,82.4,31.6,104,58.5,119
"CN(NC(=O)CC(=O)NN(C)C(=S)c1ccccc1)C(=S)c1ccccc1 + Oc1cc(-c2nc(-c3ccccc3)[nH]c2-c2ccncc2)ccc1Cl [L779450] (first compound 0.006 µM, partner dose 0.2 µM)",83.2,77.8,113,79.3,90.8,82.6,93.3,83.9,67.2,78.5,83.8,37.6,84.3,70.9,117
"CCc1ccc(CCOc2ccc(CC3SC(=O)NC3=O)cc2)nc1 (stereo not given) [pioglitazone] + COc1ccc(COc2ccc(Cc3cnc(N)nc3N)cc2OC)cc1 [GW2580] (first compound 2 µM, partner dose 1 µM)",102,95.8,88.6,118,102,108,102,82.7,106,104,107,108,95.6,107,101
"COc1cc2c(Oc3ccc4[nH]c(C)cc4c3F)ncnc2cc1OCCCN1CCCC1 [cediranib] + CCCCCCCCCCCC1=C(O)C(=O)C=C(O)C1=O [Embelin] (first compound 0.4 µM, partner dose 1.2 µM)",93.6,108,112,110,89.7,115,114,98.8,99.7,95.5,109,85.1,111,107,112
"CCc1ccc(CCOc2ccc(CC3SC(=O)NC3=O)cc2)nc1 (stereo not given) [pioglitazone] + O=c1cc(-c2cccc3c2Sc2ccccc2S3)oc(N2CCOCC2)c1 [KU55933] (first compound 2 µM, partner dose 1 µM)",104,96.4,93.9,95.1,77.7,88.4,92.5,90.7,103,95.8,103,99.1,103,97.5,109
"CC(C)(C)c1cnc(CSc2cnc(NC(=O)C3CCNCC3)s2)o1 + Cn1cc(/C=C2\C(=O)Nc3cccnc32)c2ccccc21 [GW441756] (first compound 0.01 µM, partner dose 0.4 µM)",102,109,101,81.8,95.8,103,86.6,76,94.4,88,106,84.5,117,104,99.9
"CN(NC(=O)CC(=O)NN(C)C(=S)c1ccccc1)C(=S)c1ccccc1 + COc1ccc(-c2ccc3c(N4CCOCC4)nc(N4C[C@@H](C)O[C@@H](C)C4)nc3n2)cc1CO [KU0063794] (first compound 0.006 µM, partner dose 0.02 µM)",93.8,78.3,102,78.5,88.6,87.9,88.1,85.1,78.4,83.7,73.4,55.6,100,64.9,99
"CC(C)(C)c1cnc(CSc2cnc(NC(=O)C3CCNCC3)s2)o1 + Oc1nc(-c2ccc(C(F)(F)F)cc2)nc2c1CSCC2 [XAV939] (first compound 0.01 µM, partner dose 2 µM)",95.7,93.1,76.4,111,78.8,151,95.3,88.2,72.7,93,58.7,73.6,105,74.7,106
"CN(NC(=O)CC(=O)NN(C)C(=S)c1ccccc1)C(=S)c1ccccc1 + O=C1NC(=O)/C(=C/c2ccc(-c3ccc(F)cc3O)o2)S1 [AS252424] (first compound 0.006 µM, partner dose 1 µM)",100,67.6,118,107,101,82.2,86.5,84.3,88.8,81.6,95.4,89.5,95.4,105,112
"COc1cc2c(Oc3ccc4[nH]c(C)cc4c3F)ncnc2cc1OCCCN1CCCC1 [cediranib] + O=C1NC(=O)/C(=C/c2ccc(-c3ccc(F)cc3O)o2)S1 [AS252424] (first compound 0.4 µM, partner dose 1 µM)",94.9,98.7,91.9,107,91.7,104,91.6,85.1,99.6,108,97,92.4,125,122,123
"CC(C)(C)c1cnc(CSc2cnc(NC(=O)C3CCNCC3)s2)o1 + COc1ccc(-c2ccc3c(N4CCOCC4)nc(N4C[C@@H](C)O[C@@H](C)C4)nc3n2)cc1CO [KU0063794] (first compound 0.01 µM, partner dose 0.02 µM)",101,92.4,91.7,106,95.3,96.7,101,81.1,83,101,85,89.4,97.7,68.5,85.5
"CC(C)(C)c1cnc(CSc2cnc(NC(=O)C3CCNCC3)s2)o1 + COc1ccc2c(c1)CCC1C2CCC2(C)C(NCCCCCCN3C(=O)C=CC3=O)CCC12 [U73122] (first compound 0.01 µM, partner dose 0.4 µM)",97.6,106,86.7,113,103,114,102,86.7,112,114,88.4,87.3,97.4,109,118
"Cc1ccc(NC(=O)c2cccc(N(C)C)c2)cc1NC(=O)c1ccc(O)cc1 + Cn1cc(/C=C2\C(=O)Nc3cccnc32)c2ccccc21 [GW441756] (first compound 2 µM, partner dose 0.4 µM)",70.8,104,85.2,93.6,79.4,78.3,84.1,92.8,104,97.7,116,83.6,126,112,114
